Results from the antibiotic and cytotoxicity screens of Wong et al. (2023).
Some of the results follow.

Key:
HSkMC = human skeletal muscle cells; assay: cytotoxicity call (relative viability < 0.9); details: 10 µM
HepG2 = assay: cytotoxicity call (relative viability < 0.9); details: 10 µM
S. aureus RN4220 = assay: growth inhibition call (relative growth <= 0.2); details: 50 µM

C[C@H]1CN([C@@H](C)CO)C(=O)Cc2cc(NC(=O)CCN3CCOCC3)ccc2O[C@H]1CN(C)C(=O)NC1CCCCC1
inactive: cytotoxicity call (HSkMC) | cytotoxicity call (HepG2) | growth inhibition call (S. aureus RN4220)

NCC[C@@H]1CC[C@@H](NC(=O)C2CCCC2)[C@H](CO)O1
inactive: cytotoxicity call (HSkMC) | cytotoxicity call (HepG2) | growth inhibition call (S. aureus RN4220)

O=C(CNC(=O)c1ccc(Cl)cc1)NO
inactive: cytotoxicity call (HSkMC) | cytotoxicity call (HepG2) | growth inhibition call (S. aureus RN4220)

C[C@H](CO)N1C[C@H](C)[C@H](CN(C)C(=O)Nc2ccccc2)OCCCC[C@H](C)Oc2ccc(NC(=O)C3CCCCC3)cc2C1=O
inactive: cytotoxicity call (HSkMC) | cytotoxicity call (HepG2) | growth inhibition call (S. aureus RN4220)

NS(=O)(=O)Cc1ccccc1F
inactive: cytotoxicity call (HSkMC) | cytotoxicity call (HepG2) | growth inhibition call (S. aureus RN4220)

CO[C@@H]1CN(C)C(=O)c2cc(NC(=O)c3ccc(F)cc3)ccc2OC[C@H](C)N(C(=O)CN(C)C)C[C@H]1C
inactive: cytotoxicity call (HSkMC) | cytotoxicity call (HepG2) | growth inhibition call (S. aureus RN4220)

COc1ccc(CNC(=O)C[C@H]2C[C@@H]3c4cc(NC(=O)NC5CCCC5)ccc4O[C@@H]3[C@H](CO)O2)cc1
inactive: cytotoxicity call (HSkMC) | cytotoxicity call (HepG2) | growth inhibition call (S. aureus RN4220)

O=C(C[C@H]1C=C[C@@H](NC(=O)c2cccc(F)c2)[C@@H](CO)O1)NCCN1CCCC1
inactive: cytotoxicity call (HSkMC) | cytotoxicity call (HepG2) | growth inhibition call (S. aureus RN4220)

COc1cccc(C(=O)Nc2ccc3c(c2)C(=O)N(C)[C@H]2CC[C@@H](CC(=O)NCC4CC4)O[C@@H]2CO3)c1
inactive: cytotoxicity call (HSkMC) | cytotoxicity call (HepG2) | growth inhibition call (S. aureus RN4220)

COc1ccc(COC[C@]23NC(=S)N[C@H](c4ccccc4O2)[C@H]3COC(=O)NCCCCCC(=O)NO)cc1
inactive: cytotoxicity call (HSkMC) | cytotoxicity call (HepG2) | growth inhibition call (S. aureus RN4220)

C[C@@H]1CN([C@H](C)CO)C(=O)c2cc(NC(=O)NC3CCCCC3)ccc2O[C@@H](C)CCCCO[C@H]1CN(C)C(=O)Nc1ccc(F)cc1
inactive: cytotoxicity call (HSkMC) | cytotoxicity call (HepG2) | growth inhibition call (S. aureus RN4220)
